The values that follow come from the supplement of paper PMC8728848.

The other results are listed elsewhere or left out.

The target in test [1] is Neu5Gc(a2-8)Neu5Gc(a2-6)Gal(b1-4)GlcNAc. The test can be described thus: glycan array binding signal (z-score within array); higher = stronger binding. The conditions noted are these: glycan notation: IUPAC condensed, linker removed. In short, it runs like this: (§1)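 The binding signal is a Z-score computed within each array and averaged over linkers. Arrays of the same protein sequence at different concentrations or buffers were also averaged together. Data originate from 3228 arrays in the Consortium for Functional Glycomics database, kept only where the protein sequence was available.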

The target in test [2] is Neu5Gc(b2-6)Gal(b1-4)GlcNAc. Described as above. The conditions noted are these: glycan notation: IUPAC condensed, linker removed. In short, it runs like this: as §1

B1: AidA (Burkholderia cenocepacia) (protein)
chain: MSRVTDVLVSFDTETILKKYPNPSKNPAAPTLIDWRYVYMVTNQDNVISGQAGGELDLKAQVGDLIRWRETSLSLGFENQVVFYKFIGNVGNDLISTPTPRVAEASIPVPNTSKPEVPTCQKVANYYWSSECLKVGRVTYHFQFQIIDRNCQSQGCFSWDPFISIHN
Turning to B1, the “glycan array binding signal (z-score)” value in test [1] is -0.407; in test [2], 0.599.
